Assay results taken from the supplement of paper PMC8728848.
The list shows a part of the results.

Experiments:
Test in all cases: glycan array binding signal (z-score within array); higher = stronger binding
Details in all cases: glycan notation: IUPAC condensed, linker removed
[1] = target: Gal(a1-4)Gal(b1-4)GlcNAc(b1-2)Man(a1-3)[Gal(a1-4)Gal(b1-4)GlcNAc(b1-2)Man(a1-6)]Man(b1-4)GlcNAc(b1-4)GlcNAc
Procedure, shortened: (§1)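 Arrays were curated from the Consortium for Functional Glycomics database, 3228 in total, and kept only where the protein sequence was available. Binding is expressed as a within-array Z-score. This score was averaged across arrays of the same protein sequence at different concentrations or buffers and across linkers, and negative values can be read as non-binding.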

[2] = target: Gal(a1-4)Gal(b1-4)GlcNAc(b1-3)Gal(b1-4)Glc
Procedure, shortened: as §1

[3] = target: Gal(a1-4)GlcNAc
Procedure, shortened: as §1

[4] = target: Gal(a1-6)Glc
Procedure, shortened: as §1

[5] = target: Gal(b1-2)Gal
Procedure, shortened: as §1

[6] = target: Gal(b1-3)Gal
Procedure, shortened: as §1

[7] = target: Gal(b1-3)Gal(b1-4)GlcNAc
Procedure, shortened: as §1

[8] = target: Gal(b1-3)Gal(b1-4)GlcNAc(b1-2)Man(a1-3)[Gal(b1-3)Gal(b1-4)GlcNAc(b1-2)Man(a1-6)]Man(b1-4)GlcNAc(b1-4)GlcNAc
Procedure, shortened: as §1

[9] = target: Gal(b1-3)GalNAc
Procedure, shortened: as §1

[10] = target: Gal(b1-3)GalNAc(a1-3)[Fuc(a1-2)]Gal(b1-4)Glc
Procedure, shortened: as §1

[11] = target: Gal(b1-3)GalNAc(a1-3)[Fuc(a1-2)]Gal(b1-4)GlcNAc
Procedure, shortened: as §1

[12] = target: Gal(b1-3)GalNAc(b1-3)Gal(a1-4)Gal(b1-4)Glc
Procedure, shortened: as §1

[13] = target: Gal(b1-3)GalNAc(b1-4)Gal(b1-4)Glc
Procedure, shortened: as §1

[14] = target: Gal(b1-3)GalNAc(b1-4)[Neu5Ac(a2-3)]Gal(b1-4)Glc
Procedure, shortened: as §1

[15] = target: Gal(b1-3)GlcNAc
Procedure, shortened: as §1

[16] = target: Gal(b1-3)GlcNAc(a1-6)Gal(b1-4)GlcNAc
Procedure, shortened: as §1

[17] = target: Gal(b1-3)GlcNAc(b1-2)Man(a1-3)[Gal(b1-3)GlcNAc(b1-2)Man(a1-6)]Man(b1-4)GlcNAc(b1-4)GlcNAc
Procedure, shortened: as §1

[18] = target: Gal(b1-3)GlcNAc(b1-2)Man(a1-3)[Gal(b1-3)GlcNAc(b1-2)Man(a1-6)]Man(b1-4)GlcNAc(b1-4)[Fuc(a1-6)]GlcNAc
Procedure, shortened: as §1

[19] = target: Gal(b1-3)GlcNAc(b1-2)[Gal(b1-3)GlcNAc(b1-6)]Man(a1-6)[Gal(b1-3)GlcNAc(b1-2)Man(a1-3)]Man(b1-4)GlcNAc(b1-4)GlcNAc
Procedure, shortened: as §1

[20] = target: Gal(b1-3)GlcNAc(b1-3)Gal(b1-3)GlcNAc
Procedure, shortened: as §1

[21] = target: Gal(b1-3)GlcNAc(b1-3)Gal(b1-4)Glc
Procedure, shortened: as §1

[22] = target: Gal(b1-3)GlcNAc(b1-3)Gal(b1-4)GlcNAc
Procedure, shortened: as §1

[23] = target: Gal(b1-3)GlcNAc(b1-3)Gal(b1-4)GlcNAc(b1-6)[Gal(b1-3)GlcNAc(b1-3)]Gal(b1-4)Glc
Procedure, shortened: as §1

[24] = target: Gal(b1-3)GlcNAc(b1-3)Gal(b1-4)[Fuc(a1-3)]GlcNAc(b1-6)[Gal(b1-3)GlcNAc(b1-3)]Gal(b1-4)Glc
Procedure, shortened: as §1

[25] = target: Gal(b1-3)GlcNAc(b1-3)GalNAc
Procedure, shortened: as §1

[26] = target: Gal(b1-3)GlcNAc(b1-6)Gal(b1-4)GlcNAc
Procedure, shortened: as §1

[27] = target: Gal(b1-3)[Fuc(a1-4)]GlcNAc
Procedure, shortened: as §1

[28] = target: Gal(b1-3)[Fuc(a1-4)]GlcNAc(b1-2)Man(a1-3)[Gal(b1-3)[Fuc(a1-4)]GlcNAc(b1-2)Man(a1-6)]Man(b1-4)GlcNAc(b1-4)GlcNAc
Procedure, shortened: as §1

[29] = target: Gal(b1-3)[Fuc(a1-4)]GlcNAc(b1-2)Man(a1-3)[Gal(b1-3)[Fuc(a1-4)]GlcNAc(b1-2)Man(a1-6)]Man(b1-4)GlcNAc(b1-4)[Fuc(a1-6)]GlcNAc
Procedure, shortened: as §1

[30] = target: Gal(b1-3)[Fuc(a1-4)]GlcNAc(b1-3)Gal(b1-3)[Fuc(a1-4)]GlcNAc
Procedure, shortened: as §1

[31] = target: Gal(b1-3)[Fuc(a1-4)]GlcNAc(b1-3)Gal(b1-4)GlcNAc
Procedure, shortened: as §1

[32] = target: Gal(b1-3)[Fuc(a1-4)]GlcNAc(b1-3)Gal(b1-4)[Fuc(a1-3)]GlcNAc
Procedure, shortened: as §1

[33] = target: Gal(b1-3)[GlcNAc(b1-6)]GalNAc
Procedure, shortened: as §1

[34] = target: Gal(b1-3)[Neu5Ac(a2-6)]GalNAc
Procedure, shortened: as §1

[35] = target: Gal(b1-3)[Neu5Ac(a2-6)]GlcNAc(b1-6)Gal(b1-4)Glc
Procedure, shortened: as §1

[36] = target: Gal(b1-3)[Neu5Ac(b2-6)]GalNAc
Procedure, shortened: as §1

[37] = target: Gal(b1-4)Gal
Procedure, shortened: as §1

B1: SCA (Schizophyllum commune) (protein)
chain: MGIDQGVYLITNAGSGTAATLKDGYVKGWERIKGKEQLNQLWFVKSVKTSASDPGYAAFNLATNKVLDLEKGLADRGTPILGWDYHEGDNQHWVIKKQADGKYYKIQSVKTQTFVDLNNGGKDNGTKIQGWVGSWDETNSHQRWVFNQFSATGSRIKSILDTHPKIHGKVIVEWPDRIYFTPDQYIFEAIWAKTGLADIKPRDPLFQSEAYEKVFKGWVVSRAQEIIKVDGFDILVGSLSLVEKSTQKIKVLDVSVRTSDDKSPDLSQIVFFDPESGRTLVDIPEGYEVNSVII
[1]
  glycan array binding signal (z-score): 0.897
[2]
  glycan array binding signal (z-score): -0.124
[3]
  glycan array binding signal (z-score): -0.135
[4]
  glycan array binding signal (z-score): -0.161
[5]
  glycan array binding signal (z-score): -0.162
[6]
  glycan array binding signal (z-score): -0.162
[7]
  glycan array binding signal (z-score): -0.164
[8]
  glycan array binding signal (z-score): 11.4
[9]
  glycan array binding signal (z-score): -0.16
[10]
  glycan array binding signal (z-score): -0.16
[11]
  glycan array binding signal (z-score): -0.158
[12]
  glycan array binding signal (z-score): -0.16
[13]
  glycan array binding signal (z-score): -0.158
[14]
  glycan array binding signal (z-score): -0.16
[15]
  glycan array binding signal (z-score): -0.162
[16]
  glycan array binding signal (z-score): -0.134
[17]
  glycan array binding signal (z-score): -0.158
[18]
  glycan array binding signal (z-score): -0.159
[19]
  glycan array binding signal (z-score): 1.05
[20]
  glycan array binding signal (z-score): -0.161
[21]
  glycan array binding signal (z-score): -0.163
[22]
  glycan array binding signal (z-score): -0.158
[23]
  glycan array binding signal (z-score): 0.045
[24]
  glycan array binding signal (z-score): -0.147
[25]
  glycan array binding signal (z-score): -0.161
[26]
  glycan array binding signal (z-score): 0.044
[27]
  glycan array binding signal (z-score): -0.161
[28]
  glycan array binding signal (z-score): -0.162
[29]
  glycan array binding signal (z-score): -0.054
[30]
  glycan array binding signal (z-score): -0.159
[31]
  glycan array binding signal (z-score): -0.16
[32]
  glycan array binding signal (z-score): -0.16
[33]
  glycan array binding signal (z-score): -0.16
[34]
  glycan array binding signal (z-score): -0.152
[35]
  glycan array binding signal (z-score): -0.133
[36]
  glycan array binding signal (z-score): -0.161
[37]
  glycan array binding signal (z-score): -0.165
